In all, about 2,900 compounds were measured (“IRF Lucia reporter activity, fold change vs agonist alone”: median about 0.9, highest 2% from about 2.8 on). This is one part of the list.
How the values were obtained:
RAW-Dual [1] = assay: IRF Lucia reporter activity, fold change vs agonist alone; higher = enhanced IRF activity; settings: library stock concentration (final ~1000-fold dilution): 10 mM, agonist: MPLA (TLR4) […]
Outline: (§1)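 Reporter activity is given as fold change relative to agonist-alone wells. To measure it, 50 nL of library stock was pin-tooled onto RAW-Dual macrophages (50,000 cells/well, DMEM, 384-well plates), a PRR agonist followed 1 h later, and cells stayed at 37 °C, 5% CO2. Twenty hours on, supernatant was assayed for IRF (QuantiLuc luminescence) and NF-κB (QuantiBlue, 620 nm absorbance), and wells under 70% of agonist-control IncuCyte confluency in both mask sets were marked cytotoxic.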

RAW-Dual [2] = assay: IRF Lucia reporter activity, fold change vs agonist alone; cytotoxicity flag (confluency mask): not cytotoxic; higher = enhanced IRF activity
Outline: as §1

RAW-Dual [3] = assay: IRF Lucia reporter activity, fold change vs agonist alone; cytotoxicity flag (confluency mask): cytotoxic (confluency <70% of control); higher = enhanced IRF activity
Outline: as §1

[4] = cytotoxicity flag (confluency mask): not cytotoxic
[5] = agonist: 3'3'-cGAMP (STING) 10 ug/mL

CCc1c(C)[nH]c2c1C(=O)C(CN1CCOCC1)CC2.Cl (stereo unspecified)
IRF Lucia reporter activity (RAW-Dual [1]; [4]): 1.06

CCc1c(C)[nH]c2c1C(=O)C(CN1CCOCC1)CC2.Cl (stereo unspecified) (library stock concentration (final ~1000-fold dilution): 10 mM)
IRF Lucia reporter activity (RAW-Dual [2]; [5]): 1.04
IRF Lucia reporter activity (RAW-Dual [2]; agonist: LPS (TLR4) 0.1 ug/mL): 1.31

CCC(=O)c1c(O)cc(O)cc1O
IRF Lucia reporter activity (RAW-Dual [1]; [4]): 0.971

CCC(=O)c1c(O)cc(O)cc1O (library stock concentration (final ~1000-fold dilution): 10 mM)
IRF Lucia reporter activity (RAW-Dual [2]; [5]): 0.978
IRF Lucia reporter activity (RAW-Dual [2]; agonist: LPS (TLR4) 0.1 ug/mL): 1.06

C=CC(=O)Nc1ccc2ncnc(Nc3cccc(Br)c3)c2c1 (library stock concentration (final ~1000-fold dilution): 10 mM)
IRF Lucia reporter activity (RAW-Dual [2]; [5]): 0.032
IRF Lucia reporter activity (RAW-Dual [2]; agonist: LPS (TLR4) 0.1 ug/mL): 0.11

C=CC(=O)Nc1ccc2ncnc(Nc3cccc(Br)c3)c2c1
IRF Lucia reporter activity (RAW-Dual [1]; [4]): 0.0844

O=c1cc[nH]c(=S)[nH]1
IRF Lucia reporter activity (RAW-Dual [1]; [4]): 1

O=c1cc[nH]c(=S)[nH]1 (library stock concentration (final ~1000-fold dilution): 10 mM)
IRF Lucia reporter activity (RAW-Dual [2]; [5]): 1.04
IRF Lucia reporter activity (RAW-Dual [2]; agonist: LPS (TLR4) 0.1 ug/mL): 0.848

Cc1nnc(SCC2=C(C(=O)O)N3C(=O)C(NC(=O)Cn4cnnn4)C3SC2)s1 (stereo unspecified) (library stock concentration (final ~1000-fold dilution): 10 mM)
IRF Lucia reporter activity (RAW-Dual [2]; [5]): 1.08
IRF Lucia reporter activity (RAW-Dual [2]; agonist: LPS (TLR4) 0.1 ug/mL): 1.26

Cc1nnc(SCC2=C(C(=O)O)N3C(=O)C(NC(=O)Cn4cnnn4)C3SC2)s1 (stereo unspecified)
IRF Lucia reporter activity (RAW-Dual [1]; [4]): 1.07

Cc1cccc(C#Cc2ccccc2)n1 (library stock concentration (final ~1000-fold dilution): 10 mM)
IRF Lucia reporter activity (RAW-Dual [2]; [5]): 1.01
IRF Lucia reporter activity (RAW-Dual [2]; agonist: LPS (TLR4) 0.1 ug/mL): 1.08

Cc1cccc(C#Cc2ccccc2)n1
IRF Lucia reporter activity (RAW-Dual [1]; [4]): 1.33

Nc1nc(NCCc2ccc(O)cc2)nc2nc(-c3ccco3)nn12 (library stock concentration (final ~1000-fold dilution): 10 mM)
IRF Lucia reporter activity (RAW-Dual [2]; [5]): 0.563
IRF Lucia reporter activity (RAW-Dual [2]; agonist: LPS (TLR4) 0.1 ug/mL): 0.973

O=C(/C=C/c1ccc(CN(CCO)CCc2c[nH]c3ccccc23)cc1)NO
IRF Lucia reporter activity (RAW-Dual [1]; cytotoxicity flag (confluency mask): cytotoxic (confluency <70% of control)): 0.454

O=C(/C=C/c1ccc(CN(CCO)CCc2c[nH]c3ccccc23)cc1)NO (library stock concentration (final ~1000-fold dilution): 10 mM)
IRF Lucia reporter activity (RAW-Dual [3]; [5]): 0.0242
IRF Lucia reporter activity (RAW-Dual [3]; agonist: LPS (TLR4) 0.1 ug/mL): 0.713

Cc1nc(-c2cn3c(n2)-c2ccc(-c4cnn(C(C)(C)C(N)=O)c4)cc2OCC3)n(C(C)C)n1 (library stock concentration (final ~1000-fold dilution): 10 mM)
IRF Lucia reporter activity (RAW-Dual [2]; [5]): 0.346
IRF Lucia reporter activity (RAW-Dual [2]; agonist: LPS (TLR4) 0.1 ug/mL): 2.29

Cc1nc(-c2cn3c(n2)-c2ccc(-c4cnn(C(C)(C)C(N)=O)c4)cc2OCC3)n(C(C)C)n1
IRF Lucia reporter activity (RAW-Dual [1]; [4]): 1.98

COc1ccccc1OCCN.Cl (library stock concentration (final ~1000-fold dilution): 10 mM)
IRF Lucia reporter activity (RAW-Dual [2]; [5]): 0.942
IRF Lucia reporter activity (RAW-Dual [2]; agonist: LPS (TLR4) 0.1 ug/mL): 1.2

COc1ccccc1OCCN.Cl
IRF Lucia reporter activity (RAW-Dual [1]; [4]): 0.923

N#Cc1cc(-c2n[nH]c(-c3ccncc3)n2)ccn1
IRF Lucia reporter activity (RAW-Dual [1]; [4]): 1.06

N#Cc1cc(-c2n[nH]c(-c3ccncc3)n2)ccn1 (library stock concentration (final ~1000-fold dilution): 10 mM)
IRF Lucia reporter activity (RAW-Dual [2]; [5]): 1.07
IRF Lucia reporter activity (RAW-Dual [2]; agonist: LPS (TLR4) 0.1 ug/mL): 1.08

COc1ccc(S(=O)(=O)N(C(C)=O)c2ccccc2/C=C/c2cc[n+]([O-])cc2)cc1
IRF Lucia reporter activity (RAW-Dual [1]; [4]): 0.674

COc1ccc(S(=O)(=O)N(C(C)=O)c2ccccc2/C=C/c2cc[n+]([O-])cc2)cc1 (library stock concentration (final ~1000-fold dilution): 10 mM)
IRF Lucia reporter activity (RAW-Dual [2]; [5]): 0.48
IRF Lucia reporter activity (RAW-Dual [2]; agonist: LPS (TLR4) 0.1 ug/mL): 0.654

Cc1c(F)cc(C(=O)NC2CC2)cc1-c1ccc(C(=O)NCC(C)(C)C)cn1
IRF Lucia reporter activity (RAW-Dual [1]; [4]): 1.12

Cc1c(F)cc(C(=O)NC2CC2)cc1-c1ccc(C(=O)NCC(C)(C)C)cn1 (library stock concentration (final ~1000-fold dilution): 10 mM)
IRF Lucia reporter activity (RAW-Dual [2]; [5]): 0.508
IRF Lucia reporter activity (RAW-Dual [2]; agonist: LPS (TLR4) 0.1 ug/mL): 0.805

CNC(=O)C(Cc1c[nH]c2ccccc12)NC(=O)C(CC(=O)NO)CC(C)C (stereo unspecified) (library stock concentration (final ~1000-fold dilution): 10 mM)
IRF Lucia reporter activity (RAW-Dual [2]; [5]): 0.8
IRF Lucia reporter activity (RAW-Dual [2]; agonist: LPS (TLR4) 0.1 ug/mL): 1.08

CNC(=O)C(Cc1c[nH]c2ccccc12)NC(=O)C(CC(=O)NO)CC(C)C (stereo unspecified)
IRF Lucia reporter activity (RAW-Dual [1]; [4]): 0.969

O=C1Nc2nc(-c3c(O)cccc3OCC3CC3)cc([C@@H]3CCCNC3)c2CO1 (library stock concentration (final ~1000-fold dilution): 10 mM)
IRF Lucia reporter activity (RAW-Dual [3]; [5]): 0.109
IRF Lucia reporter activity (RAW-Dual [3]; agonist: LPS (TLR4) 0.1 ug/mL): 0.104

O=C(NC(CO)C(O)c1ccc([N+](=O)[O-])cc1)C(Cl)Cl (stereo unspecified) (library stock concentration (final ~1000-fold dilution): 10 mM)
IRF Lucia reporter activity (RAW-Dual [2]; [5]): 1.09
IRF Lucia reporter activity (RAW-Dual [2]; agonist: LPS (TLR4) 0.1 ug/mL): 0.984

O=C(NC(CO)C(O)c1ccc([N+](=O)[O-])cc1)C(Cl)Cl (stereo unspecified)
IRF Lucia reporter activity (RAW-Dual [1]; [4]): 0.97

From the supplement of paper PMC10037445
